We go through 1 molecule from patent publication US20230312725A1 (JIANGSU HENGRUI PHARMACEUTICALS, published 2023).

The target of this experiment is human Claudin18.2 (human). The experiment can be described thus: cell-based or functional assay.

B1: h1902-5 (antibody)
heavy: EVQLVQSGAEVKKPGASVKVSCKASGYTFTSYWMHWVRQAPGQRLEWMGMIHPNSGSTNYNEKFKGRVTITRDTSASTAYMELSSLRSEDTAVYYCARLKTGNSFDYWGQGTTVTVSS[human IgG1 constant region omitted here]
light: DIVLTQSPDSLAVSLGERATINCKSSQSLLNSGNQKNYLTWYQQKPGQPPKLLIYWASTRESGVPDRFSGSGSGTDFTLTISSLQAEDVAVYYCQNAYTYPFTFGQGTKLEIKRTVAAPSVFIFPPSDEQLKSGTASVVCLLNNFYPREAKVQWKVDNALQSGNSQESVTEQDSKDSTYSLSSTLTLSKADYEKHKVYACEVTHQGLSSPVTKSFNRGEC
For B1, the “ADCC effect, IC50 (ng/ml), NUGC4 cells with high Claudin18.2 expression” value came out at 32.2 ng/mL; the “ADCC effect, IC50 (ng/ml), NUGC4 cells with low Claudin18.2 expression” value came to 35.5 ng/mL; the “ADCC effect, IC50 (ng/ml), NUGC4 cells with moderate Claudin18.2 expression” value turned out to be 30 ng/mL.
